# Measured values published in the supplement of paper PMC11417369.
# ± gives the standard deviation of the averaged measurements. This is one part of the list.
# System: PfAP2-EXP AP2 domain (GST-tagged)
# Test: gcPBM binding intensity (ln(normalized median fluorescence intensity)); higher = stronger DNA binding
# Summary of the method: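 In this array assay, P. falciparum DNA-binding domains with a GST tag, expressed in E. coli, were applied for 1 h to primer-extended double-stranded 36-bp intergenic genomic probes and negative controls on an Agilent 4 × 180k array. Bound protein was visualised with Alexa488 anti-GST antibody at 488 nm. Binding intensity is the highest Masliner-normalised natural-log median intensity across replicate spots of either probe orientation.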
row,Sequence,gcPBM binding intensity (ln)
1,AGTAGATATAAAAGGAGTACACATATATATATAAAT [XGTACX_site4375],8.89 ± 0.34
2,TTTAATTAAATATGTATATATATTCATGTATGTATA [GTGCAC_negctrl_site14],8.31 ± 0.4
3,CATATACAGAAACACACACACACATAAATAAATATA [CACACA_site1343],8.85 ± 0.56
4,TGTTTTTGTGATCATATGAAAAAATTACCTACAAGG [CACACA_negctrl_site279],8.62 ± 0.39
5,ATAGTTTTACACATTTGTACATAATTTACAACAAAA [XGTACX_site25],8.69 ± 0.36
6,ATAGTATCTGGTAGCTGTACGAGTCGTATAGTGCAG [XGTACX_site2542],8.85 ± 0.35
7,TTTCCGTATAATTTTGCACACGAATATAAATTTGAT [CACACA_site137],8.82 ± 0.35
8,AAAAAATATTATATATGTACATAATATTTTTTTTTT [XGTACX_site5909],8.21 ± 0.33
9,ATATATATATATTCCACACACACACTAATAAAAAAA [CACACA_site9214],9.94 ± 0.16
10,TTTAATCAAATTAAAAGTACAGAATTGTTCATGTAG [XGTACX_site1229],8.46 ± 0.35
11,TATGCTTTTACAATGTGTACTTATATTTTTCACAGG [XGTACX_site6201],8.81 ± 0.4
12,ATATATCATCATGTATGTACACACATACATATATTA [XGTACX_site2814],8.64 ± 0.38
13,TAATTTTCAATAATTTGTACATAATTTTTATAAATT [XGTACX_site8133],8.31 ± 0.28
14,TATATAAATTAACCAGTGCATTATTTGGAAATTATT,8.57 ± 0.057
15,AACCATAAAAAGTGTACACATATAAAAAATATGGAA [CACACA_site4199],9.12 ± 0.39
16,ATATATATAGATCGAAGTACAGATAGAATGAAAATA [XGTACX_site2695],9.07 ± 0.45
17,TAAAAAAATTTTACAAGTACAAAAAAATGTAATAAA [XGTACX_site4829],8.68 ± 0.41
18,ACAAGAGAAAAAAATACACACAAGATAAAAATGTAT [CACACA_site607],8.76 ± 0.5
19,TAATAATAATTAAATTGTACATATAATATAATATAA [XGTACX_site8554],8.34 ± 0.38
20,AATAAAGTAATAACTACACACATTTATAAAAAAGTA [CACACA_site3753],8.51 ± 0.44
21,ATATTATCATATTCGAGTACACGAAGTATTATTGCA [XGTACX_site6765],8.66 ± 0.39
22,TCTTATAAACATGTATATATTAAAAAAAAAAAAAAA [TGCATGCA_negctrl_site86],8.1 ± 0.44
23,TATAAGCTTTCAATGTGTACATATTATTTTATTATT [XGTACX_site3988],8.74 ± 0.4

row,Sequence,gcPBM binding intensity (ln)
1,AACATATTGGATTTAGTGCACATATATATCATAATA,8.88 ± 0.092
2,AAAAATTACCCTTGTGTACACATATATTATCTGTAT [CACACA_site4513],8.8 ± 0.29
3,TAAAAATTACTATATGAACACACATGATTAGATATA [CACACA_site9012],8.43 ± 0.49
4,AGGTGATTAATATATACACACATACATATATATATA [CACACA_site8913],9.77 ± 0.44
5,GTTTTATATTATATATGTACATATCCATGAGATATA [XGTACX_site3328],9.05 ± 0.5
6,AAATAAAAATAAAATAAAATAAAATTAAATGGGAAT [GTGCAC_negctrl_site349],8.72 ± 0.39
7,TTTAACTTTTATATAACACACATATTGTAATTATGT [CACACA_site6486],8.49 ± 0.33
8,ATGACAATTCAAAATTGTACATAAAAAAAAAAAAAA [XGTACX_site7560],8.49 ± 0.33
9,TGTAAACATAAGATATGTACTTATATCATATTATAA [XGTACX_site6883],8.22 ± 0.35
10,AATAATTTGGTCTTATCAAAAATTAAAAATAAATAA [XGTACX_negctrl_site430],8.19 ± 0.36
11,AAAAAACATTTTCGAGTGCATGTTTTGCTTTATTTC,8.68 ± 0.32
12,TTAAATGTTAAAAGGGTGCTATTATATAAATGAAAA [GTGCAC_site9882],8.7 ± 0.26
13,TTCATATGTTTTAACACACACGCATATATTATATAT [CACACA_site2007],8.99 ± 0.4
14,AAAAAAATTTGGCATACACACACACCCCCACCCACA [CACACA_site8094],9.84 ± 0.13
15,ACCATATGTACATTTTTTTTTTTTTTTTTTTTTTTT [CACACA_negctrl_site1188],9.05 ± 0.16
16,ATATATATATAATGTAGTACTATTTAATAATAAGCC [XGTACX_site1263],9.775 ± 0.078
17,CACACCCACAGACACACACACACATATATAATATAT [CACACA_site594],8.91 ± 0.59
18,AAAAAAAAAAAAAAAGCACACACCAATGAGCAGCTT [CACACA_site1845],8.66 ± 0.092
19,TAATATATGTATTATGCATGTGAATAAGCACTTGAT [TGCATGCA_site848],8.87 ± 0.19
20,ATATGTTACAAAGATTGTACTTATTAAGGAGCGACT [XGTACX_site5094],8.7 ± 0.33
21,TATAATCATATACACGCATGTATAAAATTTAATACT [TGCATGCA_site700],8.5 ± 0.33
22,ACATTCAAGCGTAATTGTACATACATATATATATAT [XGTACX_site8876],10 ± 0.36
23,ATGTATATAAATAGTAGTACATTATTTCACACTGTA [XGTACX_site2061],8.63 ± 0.63

row,Sequence,gcPBM binding intensity (ln)
1,TATTGTATCCTTAATGCATGCACCAAATAAAAAAAG [TGCATGCA_site541],10.21 ± 0.064
2,AATGGAGTTTATAAGTATAAACGAGGGATACCTAAA [XGTACX_negctrl_site483],8.87 ± 0.42
3,AATATAAATAATAGTAGTACATATATATCTCAGAAA [XGTACX_site4055],8.52 ± 0.33
4,TTATGTTGTAAATGCACACATACATATACGCAGTTT [CACACA_site3015],8.46 ± 0.25
5,TAAATAAATTTATACACACACACACCCATATATATA [CACACA_site849],8.88 ± 0.35
6,AAAAAATCAAAACACACACACACACTAGAAAAAAAA [CACACA_site4909],8.64 ± 0.56
7,ATTTTATCAAGAGGAAGTACATTACCCCATGAAAAA [XGTACX_site8295],8.71 ± 0.45
8,TATATTATATTTTTATGTACATATATGTTTTTTTTT [XGTACX_site8239],8.52 ± 0.092
9,AATAAAAATATATCCACACACATATATATATCTGTA [CACACA_site4481],8.29 ± 0.3
10,TATATATATATATGATGTACATGAAAATTTCCAAAA [XGTACX_site5472],10.1 ± 0.22
11,ATATCTGAAGTGTAAAGTACATATATATATTCATAT [XGTACX_site4612],8.53 ± 0.53
12,TATATTTTTTAATTCACACAAAAATGAAAAATATTT [CACACA_site6001],8.29 ± 0.38
13,CAATTTTACTCATAAACACACATATAGATGTTATTA [CACACA_site7474],8.29 ± 0.32
14,TATATATATTATAATACATGCGGTGATGAAAGTTAT [TGCATGCA_site924],9.05 ± 0.34
15,TATAAATATAGACACACACACACCAAAGCGTAGCGC [CACACA_site6179],8.85 ± 0.33
16,GATTTGTCTTACAGTGGTACACTTATATATATGTGA [XGTACX_site2899],8.82 ± 0.43
17,AAAAAAAAAAAAAAAACACACAAGGATCATATATAT [CACACA_site3812],8.71 ± 0.5
18,AATATTTATTTTATATGTACATAATTTATTTTTAAT [XGTACX_site776],8.63 ± 0.32
19,TATAATATATATATATTTATATATATCTTCCTAATC [GTGCAC_negctrl_site682],8.12 ± 0.42
20,TTTTTTTATATAGACACAAAAGAAAATTACATATAC [CACACA_negctrl_site235],8.65 ± 0.35
21,TATGAAGTACACAATACACACTAATTATATATAAAT [CACACA_site5444],8.59 ± 0.49
22,TTTTTAAAAAAACATACACACAAAAAAAAAAAAAAA [CACACA_site3935],8.16 ± 0.5
23,TCAACCAAAACATAAGCATGCAATATATTTTTATAC [TGCATGCA_site560],9.54 ± 0.16

row,Sequence,gcPBM binding intensity (ln)
1,TTTTATAATTTCTTCTGTACATATATATGAAAATAT [XGTACX_site74],8.71 ± 0.47
2,AAAAAAAAATATAACAGTACATAAACATATGAATAT [XGTACX_site7093],8.56 ± 0.42
3,TTATATATTTTTATGTGTACTTATATATATATATAT [XGTACX_site6211],10 ± 0.13
4,AACAAAAACACTTTTACACACATAAGTAAAATATAT [CACACA_site1994],8.58 ± 0.51
5,TACTTATTTAAAATAGTGCATGAATAGAAGATATAT [GTGCAC_site9756],8.71 ± 0.28
6,CACAAAGACACAAACACACACACACCCACATACATA [CACACA_site452],8.48 ± 0.52
7,ATTTCCCTATATAGAGCATGCACTATATTCAAATGA [TGCATGCA_site531],9.24 ± 0.3
8,GGTTCATATCTTAACACACACATACATATTATAGAT [CACACA_site7392],8.81 ± 0.43
9,ATACAAATATACTTTTGTACGAAGAAATATATATAT [XGTACX_site3912],9.3
10,ATACAATTTATTTTAACACACGAATGAATTGATTAT [CACACA_site4160],8.52 ± 0.39
11,ATAAAAAAAATAAAAAGTACAAAAAAAAAAAATGGA [XGTACX_site136],8.86 ± 0.61
12,TAAAGAAACTATTCAACACACGGTCTAATTATTACA [CACACA_site1064],8.31 ± 0.45
13,CAGGGCAGGGGGAAGGGTACACATAAAAGAAAATAA [XGTACX_site172],9.45 ± 0.23
14,TATTCTAAAGAAATTACACACATGCAATGAAAAAAA [CACACA_site6895],8.9 ± 0.37
15,AAAAATAAACGACAGTGTACTAAATATTTAATTTTC [XGTACX_site3580],8.72 ± 0.38
16,TATAAATATATATTTTGTACTTAATATAAATTTATA [XGTACX_site7996],8.33 ± 0.41
17,GAAAAAAGAAATTAAACATGCATCTGCAAATTTAAA [TGCATGCA_site974],8.34 ± 0.42
18,AATAATATTTAATACACACACCAGTTCTGCAAATTT [CACACA_site7712],8.8 ± 0.35
19,AATAGTAAAAGATATACACACACCAAAAAATATAAT [CACACA_site5293],9.02 ± 0.47
20,TGCTACATTTTATGTACACACATATACAGATATATA [CACACA_site4646],8.42 ± 0.26
